{"source": "paper PMC6919601", "about": "“Identification of Plasmodium dipeptidyl aminopeptidase allosteric inhibitors by high throughput screening” (PLoS ONE, 2019)", "note": "Screen size: about 110,000 compounds; about 230 (0.21%) showed an effect of 50% or more. This is one part of the list.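 Also: 30 min substrate incubation versus DMSO and 10 µM JCP410 controls.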", "data": [{"biological_target": "DPAP1 (Plasmodium falciparum, UniProt Q8IIJ9)", "sequence (Q8IIJ9 whole entry, looked up)": "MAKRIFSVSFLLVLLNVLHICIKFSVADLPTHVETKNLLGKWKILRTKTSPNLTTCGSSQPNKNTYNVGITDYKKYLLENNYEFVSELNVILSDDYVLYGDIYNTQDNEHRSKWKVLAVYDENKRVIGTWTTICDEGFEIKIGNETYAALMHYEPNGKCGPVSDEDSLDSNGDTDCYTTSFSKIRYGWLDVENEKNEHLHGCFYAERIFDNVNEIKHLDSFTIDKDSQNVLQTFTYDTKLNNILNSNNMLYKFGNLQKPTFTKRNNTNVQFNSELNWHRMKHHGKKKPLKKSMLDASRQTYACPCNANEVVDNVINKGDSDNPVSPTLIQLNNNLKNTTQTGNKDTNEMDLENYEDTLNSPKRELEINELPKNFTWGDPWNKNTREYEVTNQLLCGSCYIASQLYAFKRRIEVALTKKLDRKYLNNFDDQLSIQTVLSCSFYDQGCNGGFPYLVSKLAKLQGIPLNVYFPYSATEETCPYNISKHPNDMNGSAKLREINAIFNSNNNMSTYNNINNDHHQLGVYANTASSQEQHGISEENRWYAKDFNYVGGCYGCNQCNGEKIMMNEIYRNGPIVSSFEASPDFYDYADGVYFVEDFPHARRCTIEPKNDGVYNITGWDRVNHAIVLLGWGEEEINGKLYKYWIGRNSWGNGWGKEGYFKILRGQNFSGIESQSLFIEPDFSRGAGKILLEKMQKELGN", "assay": "primary screen, percent inhibition; read by cleavage of a fluorogenic dipeptide substrate; higher = more effect of the substance", "set-up": "species or system P. falciparum D10 trophozoite lysates; single well", "units": {"% Inhibition @ 10 uM": "%"}, "values": [{"smiles": "c1cc(Nc2ncnc3sc4c(c23)CCCC4)ccn1", "% Inhibition @ 10 uM": 0.986}, {"smiles": "COc1ccc(NC(=O)c2ccc(Br)cc2)cc1OC", "% Inhibition @ 10 uM": -0.636}, {"smiles": "Cc1noc2ncnc(N3CCc4ccccc4C3)c12", "% Inhibition @ 10 uM": -1.42}, {"smiles": "Cc1c(C(c2cc(Br)ccc2O)c2c(C)n(C)n(-c3ccccc3)c2=O)c(=O)n(-c2ccccc2)n1C", "% Inhibition @ 10 uM": 9.64}, {"smiles": "COc1ccc(S(=O)(=O)N(CC(=O)N2CCc3ccccc3C2)c2ccc(Cl)cc2)cc1", "% Inhibition @ 10 uM": -2.28}, {"smiles": "Cc1ccc(-n2nnc(-c3nc(-c4ccc5c(c4)OCO5)no3)c2N)cc1", "% Inhibition @ 10 uM": 0.331}, {"smiles": "C=CCNc1nc(-c2sc(NC(=O)CC)nc2C)cs1", "% Inhibition @ 10 uM": -1.93}, {"smiles": "CCOc1ccccc1C1C2=C(O)CCCC2=NC(C)=C1C(=O)OCc1ccccc1", "note": "(stereo not shown)", "% Inhibition @ 10 uM": 7.49}, {"smiles": "CCOC(=O)N1CCC(N(CC)Cc2ccccc2)CC1", "% Inhibition @ 10 uM": -1.81}, {"smiles": "C=C(C)[C@@H]1CC=C(CN2CCN(c3ccc([N+](=O)[O-])cc3)CC2)CC1", "% Inhibition @ 10 uM": 4.08}, {"smiles": "Cc1cc2c(cc1C)NC(c1cccs1)C1=C(O)CC(C)(C)CC1=N2", "note": "(stereo not shown)", "% Inhibition @ 10 uM": -0.413}, {"smiles": "Cc1cc(/C=C2\\C(=N)N3N=C(S(C)(=O)=O)SC3=NC2=O)c(C)n1-c1ccccc1F", "% Inhibition @ 10 uM": 1.9}, {"smiles": "CC(=O)Nc1nc2n(n1)C(c1ccccc1)C=C(C)N2", "note": "(stereo not shown)", "% Inhibition @ 10 uM": -1.07}, {"smiles": "Cc1ccc(N2C(=O)C(Cl)=C(N3CCCCC3)C2=O)cc1", "% Inhibition @ 10 uM": -0.941}, {"smiles": "O=C(CN1C(=O)c2cccc3cccc1c23)NCc1ccccc1Cl", "% Inhibition @ 10 uM": -4.05}, {"smiles": "CC/N=c1\\c(NC(=O)c2ccc3c(c2)OCO3)c(O)oc2ccccc12", "% Inhibition @ 10 uM": -5.06}, {"smiles": "COc1ccc(OCc2nn3c(-c4ccc(C)cc4)nnc3s2)cc1", "% Inhibition @ 10 uM": 2.89}, {"smiles": "O=[N+]([O-])c1ccc2[nH]c(CN3CCCCC3)c(-c3ccccc3)c2c1", "% Inhibition @ 10 uM": 3.47}, {"smiles": "CN1CCN(C(=O)/C(=C/c2cccnc2)NC(=O)c2cccc(Br)c2)CC1", "% Inhibition @ 10 uM": 2.08}, {"smiles": "Cc1c(CN2CCN(c3ccc(F)cc3)CC2)c(=O)n(-c2ccccc2)n1C", "% Inhibition @ 10 uM": -1.21}, {"smiles": "COc1cc2nc(-n3nc(C)cc3C)n3nc(-c4cccnc4)nc3c2cc1OC", "% Inhibition @ 10 uM": -1.01}, {"smiles": "CCc1ccc(C2C(C#N)=C(N)N(c3ccc(Br)cn3)C3=C2C(=O)CCC3)cc1", "note": "(stereo not shown)", "% Inhibition @ 10 uM": -5.36}, {"smiles": "C=C(C)CN(CC)Cc1cccc(O)c1", "% Inhibition @ 10 uM": -6}, {"smiles": "O=c1c2ccccc2nc(CN2CCCCCC2)n1-c1ccc(F)cc1", "% Inhibition @ 10 uM": 6.65}, {"smiles": "O=C(NCc1cccc(Cl)c1)c1cnc2ccccn2c1=O", "% Inhibition @ 10 uM": -1.66}, {"smiles": "CCOc1cc2c(cc1OCC)C(c1cc(Cl)ccc1O)NCC2", "note": "(stereo not shown)", "% Inhibition @ 10 uM": -1.38}, {"smiles": "O=C(NCc1cccnc1)c1cc(-c2ccccc2O)on1", "% Inhibition @ 10 uM": 2.4}, {"smiles": "Cc1cccc(S(=O)Cc2ccc(C(=O)NC(C)C)o2)c1", "note": "(stereo not shown)", "% Inhibition @ 10 uM": 1.22}, {"smiles": "CCOCCCNC(=O)CS(=O)Cc1nc(-c2ccc(Cl)cc2)oc1C", "note": "(stereo not shown)", "% Inhibition @ 10 uM": 2.37}, {"smiles": "CCN(CC)CC#CC(CO)NCc1ccccc1", "note": "(stereo not shown)", "% Inhibition @ 10 uM": 1.7}, {"smiles": "Cc1ccc(S(=O)(=O)/N=C2\\C=CC(=O)C(Cl)=C2)c(C)c1", "% Inhibition @ 10 uM": 24.5}, {"smiles": "CC(C)(C)C(C)(O)C#CCN1CCCCC1", "note": "(stereo not shown)", "% Inhibition @ 10 uM": 3.03}, {"smiles": "CCCCCCCCCCCCC(=O)CCCC(=O)NCCCCCCCC", "% Inhibition @ 10 uM": -2.77}, {"smiles": "CSC1=NC2(CCCCC2)CC12C=CC(=O)C=C2", "% Inhibition @ 10 uM": 1.37}, {"smiles": "CCN(CC)CCNC(=O)CSc1nc2nc(C)c(Cc3c(F)cccc3Cl)c(C)n2n1", "% Inhibition @ 10 uM": 2.83}, {"smiles": "Cc1cccc(C)c1NC(=O)C1(NC(=O)c2ccc(Cl)cc2Cl)CCCC1", "% Inhibition @ 10 uM": 4.44}, {"smiles": "COC(=O)c1sc(NC(=O)CCS(=O)(=O)c2ccccc2)c(C(=O)OC)c1C", "% Inhibition @ 10 uM": -3.41}, {"smiles": "Cc1nc2nc(CSc3ccc(Cl)cc3)cc(O)n2n1", "% Inhibition @ 10 uM": 3.54}, {"smiles": "COc1cc(C2c3c(-c4ccccc4O)n[nH]c3C(=O)N2Cc2ccco2)cc(Br)c1O", "note": "(stereo not shown)", "% Inhibition @ 10 uM": -1.35}, {"smiles": "Cc1c(CC(=O)N2CCOCC2)c(=O)oc2cc(O)ccc12", "% Inhibition @ 10 uM": -4.39}, {"smiles": "Cn1cc(C2N3CC4(C)CN2CC(C)(C3)C4)c2ccccc21", "note": "(stereo not shown)", "% Inhibition @ 10 uM": 0.415}, {"smiles": "Cc1ccc(NS(=O)(=O)c2ccc(NC(=O)CCC(=O)O)cc2)c(C)c1", "% Inhibition @ 10 uM": 1.86}, {"smiles": "CCOc1ccc(-c2cc(C(=O)NCc3cccnc3)c3cc(C)ccc3n2)cc1", "% Inhibition @ 10 uM": 0.389}, {"smiles": "c1ccc(-c2nn[nH]n2)nc1", "% Inhibition @ 10 uM": -0.0709}, {"smiles": "Cc1[nH]c(SCC(=O)Nc2nc(-c3ccccc3)cs2)nc1Cc1ccc(O)cc1", "% Inhibition @ 10 uM": -0.92}, {"smiles": "COc1ccc(-c2nnc(-c3sc4ccccc4c3Cl)o2)cc1", "% Inhibition @ 10 uM": -1.17}, {"smiles": "CCC(=O)c1cc(Cl)ccc1NC(=O)c1ccc(Br)cc1", "% Inhibition @ 10 uM": -0.736}, {"smiles": "CNC(C)Cc1ccccc1Sc1ccc(O)cc1", "note": "(stereo not shown)", "% Inhibition @ 10 uM": -21.2}, {"smiles": "COc1ccc(-c2cc(C(=O)Nc3cccc(C)n3)c3ccccc3n2)c(OC)c1", "% Inhibition @ 10 uM": 3.72}, {"smiles": "CCCCCn1c(NCc2ccccc2)nc2c1c(=O)[nH]c(=O)n2C", "% Inhibition @ 10 uM": 4.95}, {"smiles": "C=C(C)CN(CC)Cc1ccc(-c2cccc([N+](=O)[O-])c2)o1", "% Inhibition @ 10 uM": -2.21}, {"smiles": "Cc1ccccc1OCC(=O)Nc1ccc(S(=O)(=O)Nc2cccc3ccccc23)cc1", "% Inhibition @ 10 uM": 6.95}, {"smiles": "CC(=O)c1ccc(NC(=O)c2c(C(=O)O)cccc2[N+](=O)[O-])cc1", "% Inhibition @ 10 uM": -7.32}, {"smiles": "CCCCC12CN3CC(C)(CN(C1)C3c1ccccc1O)C2=O", "note": "(stereo not shown)", "% Inhibition @ 10 uM": -1.71}, {"smiles": "c1ccc(CN2CN(Cc3ccccc3)c3nc4ccccc4n3C2)cc1", "% Inhibition @ 10 uM": 2.31}, {"smiles": "CCOc1cccc2cc(-c3nc4cc(C)ccc4[nH]3)c(=O)oc12", "% Inhibition @ 10 uM": -5.62}, {"smiles": "CCN(CC)C(=O)CN(C1CCCCC1)S(=O)(=O)c1ccc(C)cc1", "% Inhibition @ 10 uM": 3.87}, {"smiles": "O=C(O)CCCCCNS(=O)(=O)c1ccc(Br)c(C(=O)O)c1", "% Inhibition @ 10 uM": 4.35}, {"smiles": "CCOC(=O)c1c(C)[nH]c(C)c1S(=O)(=O)N(Cc1ccccc1Cl)C1CCN(C)CC1", "% Inhibition @ 10 uM": 3.74}, {"smiles": "Cc1ccc(C(=O)O)cc1S(=O)(=O)N1CCCCCC1", "% Inhibition @ 10 uM": -3.27}, {"smiles": "COCC(C)NC(=O)c1cc(-c2ccc3c(c2)OCO3)on1", "note": "(stereo not shown)", "% Inhibition @ 10 uM": -6.45}, {"smiles": "Cc1nnn(C23CC4CC(CC(C(=O)N5CCCCCC5)(C4)C2)C3)n1", "% Inhibition @ 10 uM": -0.0709}, {"smiles": "CC(NC(=O)c1ccccc1N)c1ccccc1", "note": "(stereo not shown)", "% Inhibition @ 10 uM": -3.38}, {"smiles": "CCOC(=O)N1CCN(C(=O)CCn2nc(-c3ccccc3)ccc2=O)CC1", "% Inhibition @ 10 uM": -0.0542}]}]}
